± gives the standard deviation. This is a selection; strong and weak results do not stand in their true shares.
System: MIWI (PIWIL1) piRISC loaded with L1MC piRNA (30 nt)
Experiment: pre-steady-state target cleavage rate (min^-1); MIWI and MILI are mouse PIWI proteins and EfPiwi is from a freshwater sponge; tags in brackets are library labels; higher = faster piRNA-guided slicing of the target
Settings: guide: L1MC piRNA 5'p-UAACUAAAUACUAUGCAAGCUGUAGGUCCU
How it was run: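 A transcribed, DNA-blocked target RNA library (0.1 nM) and 1 nM active affinity-purified piRISC bearing one synthetic guide were incubated in HEPES–potassium acetate buffer at 33 °C for 0–8 or 0–960 min, either with or without 500 nM GTSF1 partner protein. Uncleaved targets were sequenced, normalised to depth and to weakly complementary targets, and pooled over three trials, with k3 capped at 0.0001 min^-1. The pre-steady-state cleavage rate was derived with a burst-and-steady-state fit.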

[1] = auxiliary factor: 500 nM mouse GTSF1
[2] = auxiliary factor: none (no GTSF1)

UCCUCCUAGAGCUUGCAUAGAAUUUAGUUA
pre-steady-state target cleavage rate [1]: 0.291 ± 0.038 | pre-steady-state target cleavage rate [2]: 0.0124 ± 0.0036

UCGUGCUACAGCUUGCAUAGUAUUUACAAA
pre-steady-state target cleavage rate [1]: 0.326 ± 0.042 | pre-steady-state target cleavage rate [2]: 0.00286 ± 0.0028

UCCUGGAUCAGCUUGCAUAGAAUUUAGAUA
pre-steady-state target cleavage rate [1]: 0.124 ± 0.026 | pre-steady-state target cleavage rate [2]: 0.0115 ± 0.005

UGGACCAACAGGUUGCAUAGUAUUUAGUUA
pre-steady-state target cleavage rate [1]: 1.06 ± 0.055 | pre-steady-state target cleavage rate [2]: 0.0448 ± 0.0074

UCCUGGAUGAGCUUGCAUAGUUUUUUGUUA
pre-steady-state target cleavage rate [1]: 0.0806 ± 0.014 | pre-steady-state target cleavage rate [2]: 0.0177 ± 0.0048

AGGGACCUACAGCUUGCAUAGUAUUUAGUUA
pre-steady-state target cleavage rate [1]: 1.31 ± 0.086 | pre-steady-state target cleavage rate [2]: 0.102 ± 0.021

UCGACCUACAGCCUGCAUAGUAUUUAGUUA
pre-steady-state target cleavage rate [1]: 1.41 ± 0.038 | pre-steady-state target cleavage rate [2]: 0.0857 ± 0.015

UCCACCUACAGCUUGCAUAGUAUUUACUUA
pre-steady-state target cleavage rate [1]: 0.378 ± 0.044 | pre-steady-state target cleavage rate [2]: 0.0369 ± 0.0085

UGGACCUAGAGCUUGCAUAGUAUUAAGUUA
pre-steady-state target cleavage rate [1]: 0.547 ± 0.052 | pre-steady-state target cleavage rate [2]: 0.0189 ± 0.0049

UCCUGGAACUCGUUGCAUAGUAUUUAGUAA
pre-steady-state target cleavage rate [1]: 0.071 ± 0.011 | pre-steady-state target cleavage rate [2]: 0.00318 ± 0.0021

UGGAGCUACAGCUUGCAUAGUAUUUUCAAA
pre-steady-state target cleavage rate [1]: 0.25 ± 0.035 | pre-steady-state target cleavage rate [2]: 0.00487 ± 0.0027

UCCUCGUACAGCUUGGAUAGUAUUUAGUUA
pre-steady-state target cleavage rate [1]: 1.22 ± 0.062 | pre-steady-state target cleavage rate [2]: 0.0636 ± 0.011

UCGACCUACAGCAUGCAUUGUAUUUAGUUA
pre-steady-state target cleavage rate [1]: 0.944 ± 0.04 | pre-steady-state target cleavage rate [2]: 0.0101 ± 0.0026

UGGACCUACAGCUUGCAUAAUAUUUAGUUA
pre-steady-state target cleavage rate [1]: 0.633 ± 0.026 | pre-steady-state target cleavage rate [2]: 0.0425 ± 0.0076

ACGACCUACAGCUUGCAUAGUAUUUUGUUA
pre-steady-state target cleavage rate [1]: 0.912 ± 0.039 | pre-steady-state target cleavage rate [2]: 0.0603 ± 0.009

AGGACCUACAGCUUGGAUAGUAUUUUGUUA
pre-steady-state target cleavage rate [1]: 1.05 ± 0.077 | pre-steady-state target cleavage rate [2]: 0.0416 ± 0.0083

AGGUCCUACAGCUUGCAUAGUAUUUUGUUA
pre-steady-state target cleavage rate [1]: 0.792 ± 0.049 | pre-steady-state target cleavage rate [2]: 0.0698 ± 0.014

UCCUGGAUGUGCUUGCAAACUAUUUAGUUA
pre-steady-state target cleavage rate [1]: 0.00627 ± 0.003 | pre-steady-state target cleavage rate [2]: 0.00254 ± 0.0022

AGGACCUACAGCAAGCAUAGUAUUUAGUAA
pre-steady-state target cleavage rate [1]: 0.883 ± 0.086 | pre-steady-state target cleavage rate [2]: 0.00672 ± 0.0039

UGGACCUACAGCUUGCAUAGUAUUUAUGUUA
pre-steady-state target cleavage rate [1]: 0.48 ± 0.041 | pre-steady-state target cleavage rate [2]: 0.0265 ± 0.0042

UCCACCAACAGCUUGCAUAGUAUUAAGUUA
pre-steady-state target cleavage rate [1]: 0.42 ± 0.036 | pre-steady-state target cleavage rate [2]: 0.0209 ± 0.0043

AGGUCCUACAGCUUGCAUAGUAUUUACAAA
pre-steady-state target cleavage rate [1]: 0.428 ± 0.076 | pre-steady-state target cleavage rate [2]: 0.00841 ± 0.003

UGGUGGUACAGCUUGCAUAGUAUUUAGUAA
pre-steady-state target cleavage rate [1]: 0.764 ± 0.042 | pre-steady-state target cleavage rate [2]: 0.0302 ± 0.0065

AGGUCCUACAGGUUGCAUAGUAUUUAGUUA
pre-steady-state target cleavage rate [1]: 0.992 ± 0.074 | pre-steady-state target cleavage rate [2]: 0.052 ± 0.011

UCCUCCUACACCAUGCAUAGUAUUUAGUUA
pre-steady-state target cleavage rate [1]: 0.808 ± 0.032 | pre-steady-state target cleavage rate [2]: 0.0134 ± 0.002

UCCUGGAUGAGCUUGGAUAGUAAUUAGUUA
pre-steady-state target cleavage rate [1]: 0.27 ± 0.034 | pre-steady-state target cleavage rate [2]: 0.0138 ± 0.0052

UCCUGGAACAGCUUGCAUAGUUAAUAGUAA
pre-steady-state target cleavage rate [1]: 0.0309 ± 0.012 | pre-steady-state target cleavage rate [2]: 0.00349 ± 0.0027

UCCUGGUACAGCUAGCAUAGUAUUUAGAUA
pre-steady-state target cleavage rate [1]: 0.165 ± 0.031 | pre-steady-state target cleavage rate [2]: 0.00468 ± 0.0026

AGGACCUUCACCUUGCAUAGUAUUUAGUUA
pre-steady-state target cleavage rate [1]: 1.06 ± 0.04 | pre-steady-state target cleavage rate [2]: 0.0628 ± 0.01

AGGACGAUCAGCUUGCAUAGUAUUUACAAA
pre-steady-state target cleavage rate [1]: 0.447 ± 0.071 | pre-steady-state target cleavage rate [2]: 0.00798 ± 0.0029

UCCUGGAUGAGCUUGCAUAGUAUUUAGAUUA
pre-steady-state target cleavage rate [1]: 0.33 ± 0.069 | pre-steady-state target cleavage rate [2]: 0.0263 ± 0.0096

UCCUGCUACAGCUUGCAUAGUAAUUUGUUA
pre-steady-state target cleavage rate [1]: 0.446 ± 0.049 | pre-steady-state target cleavage rate [2]: 0.0138 ± 0.0047

UCGACCAACAGCUUGCAUUGUAUUUAGUUA
pre-steady-state target cleavage rate [1]: 0.973 ± 0.028 | pre-steady-state target cleavage rate [2]: 0.0383 ± 0.008

UCCACCUACAGCUUGCAUAGUAUUUUGUUA
pre-steady-state target cleavage rate [1]: 0.733 ± 0.061 | pre-steady-state target cleavage rate [2]: 0.0362 ± 0.0057

UCGACCUACUGCUUGCAUAGUUUUUAGUUA
pre-steady-state target cleavage rate [1]: 0.394 ± 0.017 | pre-steady-state target cleavage rate [2]: 0.0293 ± 0.0054

UCCACCUACAGCUUGCAUAGUGUUUAGUUA
pre-steady-state target cleavage rate [1]: 0.633 ± 0.032 | pre-steady-state target cleavage rate [2]: 0.0474 ± 0.0078

UGCUCCUACAGCUUGCAUAGUAUUUAGUUA
pre-steady-state target cleavage rate [1]: 1.33 ± 0.047 | pre-steady-state target cleavage rate [2]: 0.0726 ± 0.012

UGGACCUACAGCUUGCUAAGUAUUUAGUAA
pre-steady-state target cleavage rate [1]: 0.0584 ± 0.0078 | pre-steady-state target cleavage rate [2]: 0.00222 ± 0.0019

UCCUGGAACAGCUUGCAUUCUAUUUAGUUA
pre-steady-state target cleavage rate [1]: 0.111 ± 0.015 | pre-steady-state target cleavage rate [2]: 0.00536 ± 0.0041

UCCUGCUUCAGGUUGCAUAGUAUUUAGUUA
pre-steady-state target cleavage rate [1]: 0.854 ± 0.033 | pre-steady-state target cleavage rate [2]: 0.0169 ± 0.0032

UCCUGGAUGUGCUUGCUUAGUUUUUAGUUA
pre-steady-state target cleavage rate [1]: 0.00783 ± 0.0044 | pre-steady-state target cleavage rate [2]: 0.005 ± 0.0029

UGGACCUACGGCUUGCAUAGUAUUUAGUUA
pre-steady-state target cleavage rate [1]: 1.44 ± 0.1 | pre-steady-state target cleavage rate [2]: 0.0662 ± 0.013

UGGACCUUCAGCUUGCAUAGUUUUUAGUUA
pre-steady-state target cleavage rate [1]: 0.438 ± 0.025 | pre-steady-state target cleavage rate [2]: 0.0391 ± 0.0094

UGGACCAACAGCAUGCAUAGUAUUUAGUUA
pre-steady-state target cleavage rate [1]: 1.24 ± 0.046 | pre-steady-state target cleavage rate [2]: 0.0449 ± 0.01

UCCUCCGUACAGCUUGCAUAGUAUUUAGUUA
pre-steady-state target cleavage rate [1]: 1.02 ± 0.042 | pre-steady-state target cleavage rate [2]: 0.0539 ± 0.0094

UCGACCAACAGCUUGCAUAGAAUUUAGUUA
pre-steady-state target cleavage rate [1]: 0.402 ± 0.029 | pre-steady-state target cleavage rate [2]: 0.024 ± 0.0058

UCCUGGUACAGGUAGCAUAGUAUUUAGUUA
pre-steady-state target cleavage rate [1]: 0.351 ± 0.026 | pre-steady-state target cleavage rate [2]: 0.00326 ± 0.0025

UCGACCUAGUCCUUGCAUAGUAUUUAGUUA
pre-steady-state target cleavage rate [1]: 0.869 ± 0.03 | pre-steady-state target cleavage rate [2]: 0.0219 ± 0.005

UCGACCUACAGCUUGCAUAGUUUUUACUUA
pre-steady-state target cleavage rate [1]: 0.164 ± 0.018 | pre-steady-state target cleavage rate [2]: 0.022 ± 0.0056

UCCUGCUACAGCUUGGAUAGUAUUUAGAUA
pre-steady-state target cleavage rate [1]: 0.253 ± 0.034 | pre-steady-state target cleavage rate [2]: 0.0126 ± 0.0033

AGGACCUAGAGCUUCCAUAGUAUUUAGUUA
pre-steady-state target cleavage rate [1]: 0.237 ± 0.038 | pre-steady-state target cleavage rate [2]: 0.00573 ± 0.002

UCCUGGAUGUGCUUGCAUAGUAUUAUAGUUA
pre-steady-state target cleavage rate [1]: 0.179 ± 0.02 | pre-steady-state target cleavage rate [2]: 0.0145 ± 0.004

UCCACCUACACGUUGCAUAGUAUUUAGUUA
pre-steady-state target cleavage rate [1]: 0.801 ± 0.045 | pre-steady-state target cleavage rate [2]: 0.0145 ± 0.0024

UCCUCCUACAGGUUGCAUUGUAUUUAGUUA
pre-steady-state target cleavage rate [1]: 0.668 ± 0.04 | pre-steady-state target cleavage rate [2]: 0.0105 ± 0.0028

AGGACCUUGUGCUUGCAUAGUAUUUACAAA
pre-steady-state target cleavage rate [1]: 0.0799 ± 0.015 | pre-steady-state target cleavage rate [2]: 0.00564 ± 0.0019
